Reference: PubChem BioAssay AID463173 (ICCB-Longwood Screening Facility, Harvard Medical School, 2010)
The whole screen tested about 52,000 compounds, of which about 4,300 (8.3%) were called active. Cut-off read from the data, not from the text of the source: active = survival mostly below about 52% (no sharp cut-off); inactive = mostly above about 56%. Some of the results follow.

tested on: DeltatarO mutant; experiment: growth inhibition of S. aureus wild type versus tarO mutant, primary screen, teichoic acid synthesis inhibitors, RN4220, OD600 (AID 463173); details: OD600, 18 h, hits give low values, screened at 18.75 µg/mL (by protocol)

Row | SMILES | survival
1 | CCCCOc1ccc(C(=O)N/C(=C\c2ccc(Br)cc2)C(=O)NC2CCCCC2)cc1 | inactive: 58%
2 | Cc1nc2c3ccccc3nc(NNC(=O)CCC(=O)N3CCN(c4cccc(C(F)(F)F)c4)CC3)n2n1 | inactive: 57%
3 | Cc1cccc(-n2ccnc2SCC(=O)Nc2ccc3c(c2)OCO3)c1 | inactive: 75%
4 | O=C(Nc1cccc(F)c1)C1CCN(c2nc3ccccc3[nH]2)CC1 | inactive: 94%
5 | CCc1cccc(NC(=O)CCS(=O)(=O)c2ccc3nc(C)sc3c2)c1 | inactive: 42%
6 | CC1CCc2c(sc(NC(=O)COc3ccccc3C(C)(C)C)c2C#N)C1 (centres undefined) | inactive: 67%
7 | Cc1ccc(NC(=O)Cn2c(SCc3ccc(F)cc3)nc3cccnc32)cc1F | inactive: 68%
8 | O=C(NCCCN1CCN(c2ccccc2F)CC1)c1cc2c(s1)-c1ccccc1OC2 | active: 11%
9 | CCCCSCCCNC(=O)C1CCC(CNS(=O)(=O)c2c(C)cc(C)cc2C)CC1 (centres undefined) | inactive: 76%
10 | CCOc1ccc(CNC(=O)c2ccc3c(c2)nc2n3CCC(C)C2)cc1OC (centres undefined) | inactive: 73%
11 | CCNc1nc(=S)nc(NCc2ccccc2)[nH]1 | inactive: 57%
12 | CC(=O)c1ccc(NC(=O)CCc2c(C)nn(-c3ccc(N4CCCCC4)nn3)c2C)cc1 | inactive: 84%
13 | Cc1csc2nc(CCNS(=O)(=O)c3ccc(F)cc3)cn12 | inactive: 76%
14 | COc1ccc(CNc2ncnc3c2cnn3-c2ccc(C)c(C)c2)cc1 | inactive: 120%
15 | O=C1C2CCc3[nH]c4ccccc4c3C2C(=O)N1Cc1ccccc1 (centres undefined) | inactive: 90%
16 | NC(=O)N1CCCC1=O | inactive: 60%
17 | CC1=C(C(=O)OC2CCCCCC2)C(c2cccc(Cl)c2)CC(=O)N1 (centres undefined) | inactive: 118%
18 | CCCC1=Nc2cc(C(=O)N3CCC(C)CC3)ccc2Sc2ccc(C)cc21 | inactive: 97%
19 | Cc1ccc2c(=O)c(C(=O)c3cccc(Cl)c3)cn(CC(=O)Nc3ccccc3C(F)(F)F)c2n1 | inactive: 73%
20 | Cc1nc2scc(C)n2c(=O)c1S(=O)(=O)Nc1cccc(C(F)(F)F)c1 | inactive: 83%
21 | CCOc1ccc(-n2nc3ccc(NC(=O)c4ccc(-c5cccc(Cl)c5)o4)cc3n2)cc1 | active: 45%
22 | Cc1nc2cc(-c3ccccc3)sc2c(=O)n1N | inactive: 97%
23 | CN1CCc2nc3sc(C(=O)Nc4ccccc4C(F)(F)F)c(N)c3cc2C1 | inactive: 150%
24 | COc1ccccc1Cc1nc2ccccc2nc1SCC(=O)NCc1ccccc1Cl | inactive: 135%

Row | SMILES | survival
25 | O=C(O)C1CCCN1C(=O)C12CC3CC(CC(C3)C1)C2 (centres undefined) | inactive: 74%
26 | N=Nc1c(O)n(CC(=O)Nc2ccccc2)c2ccccc12 | inactive: 87%
27 | CCOC(=O)CC(=O)CSc1nc2ccccc2c(=O)n1CCc1ccc(S(N)(=O)=O)cc1 | inactive: 76%
28 | CC1CCCCN1CCCNC(=O)c1cc(Sc2ccc(Cl)cc2)nc2ccccc12 (centres undefined) | inactive: 94%
29 | COc1ccc(-c2noc(-c3ccc(NCC4CCCO4)c([N+](=O)[O-])c3)n2)cc1OC (centres undefined) | inactive: 54%
30 | COc1ccccc1CNC(=O)c1oc2ccc3c(c2c1C)C(=O)CC(C)(C)O3 | inactive: 56%
31 | CC(=O)Nc1ccc(NC(=O)CCS(=O)(=O)c2ccc3c(c2)CC(=O)N3C)cc1 | inactive: 84%
32 | CC(Oc1ccccc1)C(=O)N1CCCC1 (centres undefined) | inactive: 84%
33 | CCn1nnc(NC(=O)c2ccccc2)n1 | inactive: 86%
34 | COc1ccccc1C(=O)OCc1cc(=O)n2nc(C(C)C)sc2n1 | inactive: 83%
35 | O=C1C(c2ccnc3ccccc23)=C(O)c2ccccc21 | inactive: 84%
36 | CCCCC1CCC(C(=O)N2CC(=O)Nc3ccc(Cl)cc3C2c2ccc(F)cc2)CC1 (centres undefined) | active: 40%
37 | Cc1ccc(-n2c(=O)c3c4c(sc3n(CC(=O)Nc3ccccc3C)c2=O)CCCCC4)cc1C | inactive: 115%
38 | Nc1nnc(CCN2C(=O)CSC2=O)s1 | inactive: 95%
39 | CCN(CC)c1ccc(-c2nc(-c3ccco3)no2)cc1[N+](=O)[O-] | inactive: 47%
40 | CCC(C)NC(=O)c1sc2nc(C)c(C(=O)Nc3ccc(C)cc3C)c(-c3ccccc3Cl)c2c1N (centres undefined) | inactive: 67%
41 | Nc1ccc2nc(CCc3ccccc3)[nH]c2c1 | inactive: 76%
42 | COc1ccc(NC(=O)c2cnc(N3CCCCC3)c3ccccc23)cc1Cl | inactive: 78%
43 | Cc1ccc(C)c(CNC(=O)c2cc3ccccn3n2)c1 | inactive: 67%
44 | COc1ccc(NC(=O)Cn2cc(S(=O)(=O)Cc3ccc(F)cc3)c3ccccc32)cc1OC | inactive: 71%
45 | CCOC(=O)C1CCC(CN(Cc2cccc(Br)c2)S(=O)(=O)c2ccc(Cl)cc2)CC1 (centres undefined) | inactive: 91%
46 | C/C(=N\NC(=O)Cc1ccc(Cl)cc1)c1ccccc1O | inactive: 82%
47 | CCOC(=O)N1CCc2c(sc3c2C(=O)NC(c2ccccc2F)N3)C1 (centres undefined) | inactive: 62%
48 | COc1ccc(N2CC(NC(=O)COc3ccc4ccccc4c3)CC2=O)cc1OC (centres undefined) | inactive: 80%

Row | SMILES | survival
49 | CCN1C(=O)C(Cc2nc3ccccc3c(=O)n2-c2ccc(OC)cc2)c2ccccc21 (centres undefined) | inactive: 70%
50 | CC1Cc2cc(S(=O)(=O)NCc3ccc(N(C)C)cc3)ccc2N1C(=O)C1CCC1 (centres undefined) | inactive: 90%
51 | O=C(Nc1ccc(Cl)cc1)N1CCC(c2ccccc2)C1 (centres undefined) | inactive: 67%
52 | COc1ccc(C(=O)/C=C\Nc2ccc(S(=O)(=O)N=C(N)N)cc2)cc1OC | inactive: 76%
53 | c1ccc2c(c1)CC(N1CCCCC1)c1ccccc1N2 (centres undefined) | inactive: 101%
54 | CCCN(C(=O)Cn1ncc2c([nH]c3ccc(C)cc32)c1=O)c1ccccc1C | inactive: 80%
55 | Cc1cc(-c2ccc(S(=O)(=O)Nc3ccc(Cl)cc3C)cc2)on1 | inactive: 94%
56 | COc1cccc(N2CC(NC(=O)/C=C\c3ccc(OC)c(OC)c3)CC2=O)c1 (centres undefined) | inactive: 69%
57 | CCOc1ccccc1NC(=O)c1c(NCc2sccc2C)sc2c1CCC(C)C2 (centres undefined) | inactive: 98%
58 | CCC(C)NC(=O)CN1C(=O)COc2ccc(S(=O)(=O)N3CCOCC3)cc21 (centres undefined) | inactive: 82%
59 | Cn1cc(S(=O)(=O)N2CCCCC2)cc1C(=O)Nc1cccc(C#N)c1 | inactive: 131%
60 | CCOC(=O)c1cccc2c1N[C@@H](c1ccc(F)cc1)[C@H]1CC=C[C@@H]21 | active: 4%
61 | Cc1ccc(CNC(=O)Cn2c(=O)n(Cc3ccc(F)cc3)c(=O)c3sc4ccccc4c32)cc1 | inactive: 92%
62 | c1ccc(Cn2nnnc2CN2CCCC2)cc1 | inactive: 100%
63 | CCCCN(CC)C(=O)c1cc2c(=O)n3cccc(C)c3nc2s1 | inactive: 54%
64 | Cc1cc(C)cc(NC(=O)CCC(=O)N2CCSc3ccccc32)c1 | inactive: 54%
65 | CCC(C)(C)C(=O)Nc1ccccc1C(C)C | inactive: 95%
66 | Clc1ccc2nc(-c3ccccc3)c(NCc3ccco3)n2c1 | inactive: 97%
67 | O=C(O)/C(=C\c1ccccc1)NC(=O)c1ccccc1 | inactive: 100%
68 | CCCCSc1nnc2c(n1)OC(C)N(C(C)=O)c1ccccc1-2 (centres undefined) | inactive: 154%
69 | CCc1ccccc1NC(=O)CC1Sc2ccc(C(F)(F)F)cc2NC1=O (centres undefined) | inactive: 82%
70 | C/C=C/C(=O)N1CCCC(c2nc(-c3cccc(OC)c3)no2)C1 (centres undefined) | inactive: 79%
71 | COc1ccc(CCNC(=O)C2COc3ccccc3C2)cc1OC (centres undefined) | inactive: 75%
72 | COc1ccc(CCNC(=O)Cc2c(C)c3cc4c(C)coc4c(C)c3oc2=O)cc1 | inactive: 98%

Row | SMILES | survival
73 | Cn1c(Oc2ccc(Cl)cc2)nc2c1c(=O)n(Cc1ccc(F)cc1)c(=O)n2C | inactive: 48%
74 | COc1ccc(C(=O)NC(c2ccc(Cl)cc2)c2cc(Cl)c3cccnc3c2O)cc1 (centres undefined) | inactive: 88%
75 | Cc1oc2ccc(O)c(CN3CCOCC3)c2c1C(=O)Nc1cccc(Cl)c1C | inactive: 89%
76 | CCNC(=O)Cn1nc(C)n2c(cc3c(OC)cccc32)c1=O | inactive: 98%
77 | Cc1cc(C)n(C(C)CC(=O)NCc2ccc(Cl)cc2)n1 (centres undefined) | inactive: 69%
78 | Cc1ccc(OCCCSc2nc(-c3ccc(C(C)(C)C)cc3)nc3cc(=O)[nH]n23)cc1C | inactive: 58%
79 | Cc1ccc(OCC(=O)OCc2cc(=O)n3nc(C4CC4)sc3n2)cc1 | inactive: 86%
80 | Cc1ccc(Nc2ccc(N3CCN(C(=O)c4ccc([N+](=O)[O-])cc4)CC3)nn2)cc1 | inactive: 85%
81 | Cc1cc(C(c2nnnn2Cc2ccccc2)N2CCOCC2)c(C)n1-c1ccc2c(c1)OCO2 (centres undefined) | inactive: 78%
82 | Cc1cccn2c(=O)c3cc(C(=O)Nc4ccc(Cl)c(Cl)c4)sc3nc12 | inactive: 62%
83 | Cn1c(SCc2ccc(Br)cc2)nc2c([nH]c3ccccc32)c1=O | inactive: 119%
84 | Cc1ccc(S(=O)(=O)NCCc2csc(-c3cccc(F)c3)n2)cc1 | inactive: 86%
85 | O=C(c1ccc(Nc2nc3ccccc3n3nnnc23)cc1)N1CCN(c2cccc(C(F)(F)F)c2)CC1 | inactive: 57%
86 | CCOC(=O)c1cccc(NS(=O)(=O)c2cc3c(cc2C)NC(=O)CO3)c1 | inactive: 84%
87 | Cc1ccc(NC(=O)CN2C(=O)CC(C)Sc3ccccc32)c(C)c1 (centres undefined) | inactive: 81%
88 | Cc1nc2ccn(Cc3ccco3)c(=O)c2cc1C(=O)NCc1ccc(F)cc1 | inactive: 79%
89 | CCC(c1nnnn1Cc1ccccc1)N1CCN(c2cccc(Cl)c2)CC1 (centres undefined) | inactive: 89%
90 | Cc1ccc(C)c(NS(=O)(=O)c2cc3c4c(c2)C(C)C(=O)N4CCC3)c1 (centres undefined) | inactive: 106%
91 | CCCCNC(=O)Cc1ccc(Br)cc1 | inactive: 94%
92 | CN(C)CCCNC1CS(=O)(=O)CC1O (centres undefined) | inactive: 101%
93 | O=C(CC1N=C2c3ccccc3N=C(SCC(=O)Nc3ccc(F)cc3)N2C1=O)NCc1cccs1 (centres undefined) | inactive: 76%
94 | COCCCNC(=O)C1CCN(c2cc(C)nc3c(-c4ccc(Cl)cc4)c(C)nn23)CC1 | inactive: 80%
